According to patent US20180030500A1, “ENRICHMENT AND SELECTIVE CULTURE OF MYCOBACTERIA” (priority 2015, published 2018):

Tested on: Other non-fermentative bacteria
Details: 10 strains, 7 days
[1] = selective agent 32 mg/l in medium L
[2] = selective agent 64 mg/l in medium L
[3] = selective agent 128 mg/l in medium L
[4] = selective agent 400 mg/l in medium L
[5] = selective agent 800 mg/l in medium L
[6] = selective agent 1600 mg/l in medium L
[7] = selective agent 0.125 mg/l in medium L
[8] = selective agent 0.25 mg/l in medium L
[9] = selective agent 0.5 mg/l in medium L
[10] = selective agent 16 mg/l in medium L
[11] = selective agent 2.5 mg/l in medium L
[12] = selective agent 5.0 mg/l in medium L
[13] = selective agent 10 mg/l in medium L

`CCN(CC)c1ccc(C2(Cl)c3ccccc3N(c3ccccc3)c3ccccc32)cc1` [Medium C-390, 9-chloro-9-(4′-diethylamino)phenyl-9,10-dihydro-10-phenylacridine] was tested, and the “Number of strains having shown growth” value [1] was 7, the “Percentage of strains having shown growth” value (from here on “Percentage”) [1] was “(70%)” and the “Number of strains having shown growth” value [2] was 4. For the same molecule, the “Percentage” value [2] was “(40%)”, the “Number of strains having shown growth” value [3] was 2 and the “Percentage” value [3] was “(20%)”.

`C[C@@H]1O[C@@H]1P(=O)(O)O` [fosfomycin] was tested, and the “Number of strains having shown growth” value [4] was 6, the “Percentage” value [4] was “(60%)” and the “Number of strains having shown growth” value [5] was 6. For the same molecule, the “Percentage” value [5] was “(60%)”, the “Number of strains having shown growth” value [6] was 5 and the “Percentage” value [6] was “(50%)”.

For `CN(C)c1ccc(C(=C2C=CC(=[N+](C)C)C=C2)c2ccccc2)cc1` [malachite green], the “Number of strains having shown growth” value [7] was 10, the “Percentage” value [7] was “(100%)” and the “Number of strains having shown growth” value [8] was 10. The “Percentage” value [8] was “(100%)”, the “Number of strains having shown growth” value [9] was 10 and the “Percentage” value [9] was “(100%)”.

For `CCn1cc(C(=O)O)c(=O)c2ccc(C)nc21` [nalidixic acid], the “Number of strains having shown growth” value [10] was 10, the “Percentage” value [10] was “(100%)” and the “Number of strains having shown growth” value [1] was 10. The “Percentage” value [1] was “(100%)”, the “Number of strains having shown growth” value [2] was 10 and the “Percentage” value [2] was “(100%)”.

`CN[C@H](CC(C)C)C(=O)N[C@H]1C(=O)N[C@@H](CC(N)=O)C(=O)N[C@H]2C(=O)N[C@H]3C(=O)N[C@H](C(=O)N[C@H](C(=O)O)c4cc(O)cc(O)c4-c4cc3ccc4O)[C@H](O)c3ccc(c(Cl)c3)Oc3cc2cc(c3O[C@@H]2O[C@H](CO)[C@@H](O)[C@H](O)[C@H]2O[C@H]2C[C@](C)(N)[C@H](O)[C@H](C)O2)Oc2ccc(cc2Cl)[C@H]1O` [vancomycin] was tested, and the “Number of strains having shown growth” value [11] was 9, the “Percentage” value [11] was “(90%)” and the “Number of strains having shown growth” value [12] was 9. The “Percentage” value [12] was “(90%)”, the “Number of strains having shown growth” value [13] was 9 and the “Percentage” value [13] was “(90%)”.

colistin methanesulfonate was tested, and the “Number of strains having shown growth” value [1] was 10, the “Percentage” value [1] was “(100%)” and the “Number of strains having shown growth” value [2] was 10. The “Percentage” value [2] was “(100%)”, the “Number of strains having shown growth” value [3] was 10 and the “Percentage” value [3] was “(100%)”.

Read-outs that look alike come from different tables or passages of the source.
